# The whole screen tested about 310,000 compounds, of which about 14,000 (4.5%) showed an effect of 50% or more. Effects have a minus sign here. The list shows a part of the results.
# Biological target: human ether-à-go-go-related gene (hERG) potassium channel (human, UniProt Q12809)
# Assay: primary screen, population patch clamp on CHO cells stably expressing hERG
# 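Further: peak tail current of the secondary pulse compared with the same well before compound.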
# human ether-à-go-go-related gene (hERG) potassium channel, sequence (Q12809 whole entry, looked up): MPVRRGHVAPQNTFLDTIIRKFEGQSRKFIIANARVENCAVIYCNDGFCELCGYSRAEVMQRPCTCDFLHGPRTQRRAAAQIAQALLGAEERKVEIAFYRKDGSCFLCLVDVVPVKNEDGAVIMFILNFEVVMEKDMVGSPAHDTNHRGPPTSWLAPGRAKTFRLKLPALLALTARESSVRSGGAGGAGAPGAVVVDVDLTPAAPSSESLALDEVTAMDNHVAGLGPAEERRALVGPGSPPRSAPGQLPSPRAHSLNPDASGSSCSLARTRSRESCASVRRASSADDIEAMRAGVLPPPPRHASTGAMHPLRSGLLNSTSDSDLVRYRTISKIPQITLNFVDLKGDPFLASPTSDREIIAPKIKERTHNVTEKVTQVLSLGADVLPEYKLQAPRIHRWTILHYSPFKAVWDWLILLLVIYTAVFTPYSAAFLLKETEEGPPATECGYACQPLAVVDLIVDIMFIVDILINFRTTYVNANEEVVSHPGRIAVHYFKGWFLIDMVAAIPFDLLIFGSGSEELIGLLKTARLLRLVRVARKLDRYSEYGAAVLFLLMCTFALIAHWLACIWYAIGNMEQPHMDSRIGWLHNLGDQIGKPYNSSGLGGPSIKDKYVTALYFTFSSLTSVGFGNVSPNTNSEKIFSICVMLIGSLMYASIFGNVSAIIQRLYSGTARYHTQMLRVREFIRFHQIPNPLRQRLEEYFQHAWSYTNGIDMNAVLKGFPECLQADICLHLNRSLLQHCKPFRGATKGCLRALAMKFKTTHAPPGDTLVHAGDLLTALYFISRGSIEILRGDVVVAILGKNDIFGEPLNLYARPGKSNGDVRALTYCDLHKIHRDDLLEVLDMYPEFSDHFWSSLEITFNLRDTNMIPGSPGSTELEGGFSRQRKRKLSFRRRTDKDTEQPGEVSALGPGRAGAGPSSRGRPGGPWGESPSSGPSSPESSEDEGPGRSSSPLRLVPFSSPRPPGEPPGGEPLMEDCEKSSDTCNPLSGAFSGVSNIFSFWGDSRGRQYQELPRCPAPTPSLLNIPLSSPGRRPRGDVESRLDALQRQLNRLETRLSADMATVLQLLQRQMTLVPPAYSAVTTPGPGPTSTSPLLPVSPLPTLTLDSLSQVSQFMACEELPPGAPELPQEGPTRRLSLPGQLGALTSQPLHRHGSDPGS
row,Compound,"hERG current change (%, negative = inhibition) at 10uM"
1,Cc1ccc(C(=O)OCC(=O)c2ccc(Cl)s2)s1,12.4%
2,COCc1cc(=O)[nH]c(N2CCN(Cc3ccc4c(c3)OCO4)CC2)n1,1.19%
3,CN(C)[C@@H](CO)c1nnc([C@H](Cc2ccc(O)cc2)NC(=O)C2CCNCC2)o1.Cl,3.51%
4,COC(=O)c1ccccc1NC(=O)c1ccc(-c2ccc(Br)cc2)o1,27.4%
5,Cc1cc(C(=O)N2CCC3(CC2)OCCO3)no1,18%
6,CC(NC(=O)Cc1ccccc1)c1cc2c(cc1Br)OCCCO2 (stereo not drawn),1.03%
7,O=C(/C=C/c1ccco1)NCC(=O)N/N=C/c1ccc(Cl)cc1,-13.1%
8,COc1ccc(-c2nc(-c3cccc([N+](=O)[O-])c3O)cc(=O)o2)cc1OC,-0.944%
9,S=C(NCc1cccs1)Nc1cccc(Cl)c1Cl,-5.86%
10,Cc1ccc(C)c(NC(=O)Cn2nc(C(F)(F)F)cc2C2CC2)c1,21.6%
11,COc1ccc(-c2cc3ccccc3n2CC(O)CN2CCOCC2)cc1 (stereo not drawn),-13.5%
12,Cc1cc(C(=O)NNC(=O)c2ccc(Cl)cc2Cl)c(C)o1,-1.01%
13,COC(=O)C1=C(c2cccc(OC)c2OC)C[C@@H]2CC[C@H]1N2C(=O)NCc1ccc(F)cc1,0.311%
14,CCSc1nnc(NC(=O)C2CCCCC2)s1,3.64%
15,COc1ccc(-c2cc(C(=O)N3CCCCC3)no2)cc1OC,5.47%
16,Cc1cccc(NC(=O)/C(C#N)=C\c2ccc(C(=O)O)cc2)c1,13.6%
17,COc1ccc(C(=O)Nc2cccc(/C=C(\CCC(=O)O)c3nc4ccccc4s3)c2)cc1,8.59%
18,CCOC(=O)C1CCN(Cc2ccc(Cl)c(Cl)c2)CC1,-5.6%
19,CC(Nc1ccc2c(c1)OCCO2)C(=O)Nc1ccc2c(c1)OCO2 (stereo not drawn),14.8%
20,O=[N+]([O-])c1ccccc1S(=O)(=O)N1CCN(c2ccccn2)CC1,2.24%
21,COc1ccc(CCc2nnc(CCC(=O)NCC3CCCO3)o2)cc1 (stereo not drawn),2.75%
22,NC(=O)c1ccccc1OCC(=O)N1CCc2ccccc2C1,8.34%

row,Compound,"hERG current change (%, negative = inhibition) at 10uM"
1,CCOC(=O)C(C)OC(=O)C1=C(C)NC(=O)NC1c1ccc2c(c1)OCO2 (stereo not drawn),-1.27%
2,O=S1(=O)OCCC(c2ccccc2)N1Cc1ccccc1 (stereo not drawn),-0.627%
3,COc1ccc(NC(=O)CN(C)S(=O)(=O)c2cnc[nH]2)cc1Cl,16%
4,COc1ccccc1NC(=O)CN(Cc1ccco1)C(=O)c1ccc(Cl)nc1,-28.4%
5,CC(C)c1ccc(-c2c(C#N)c(N)nc(SCC(=O)N3CCCCCC3)c2C#N)cc1,8.56%
6,CCOC(=O)Cc1csc(SCC(=O)Nc2nccs2)n1,-2.46%
7,O=C(NCc1cccnc1)c1ccc(Br)s1,-16.9%
8,O=C(NCCc1ccccc1)c1ccc2c(=O)[nH]c3c(C(=O)NCC4CCCO4)sc(=S)n3c2c1 (stereo not drawn),16.5%
9,Cc1c(Cl)c(C(F)(F)F)nn1CC(=O)N1CCSCC1,4.35%
10,CCC(=O)NC(=S)Nc1cccc(NC(=O)c2ccccc2C)c1,29.6%
11,COC(=O)c1ccc(NC(=O)CSc2nnc(C)n2CC2CCCO2)cc1 (stereo not drawn),2%
12,CC(C)c1ccc(S(=O)(=O)NC2CCCC2)cc1,3.12%
13,CCCC(=O)NCc1ccncc1,14.5%
14,CCCc1cc(=O)oc2cc(C)cc(OCC(=O)Nc3ccc(CN4CCOCC4)cc3)c12,9.83%
15,Cc1cccn2c(=O)c3cc(C#N)c(=NC(=O)c4ccccc4)n(Cc4ccco4)c3nc12,-40.3%
16,CC(=O)c1ccc(N2CCN(C(=S)Nc3ccccc3F)CC2)cc1,8.93%
17,Cc1ccc(S(=O)(=O)NCCCCCC(N)=O)cc1,3.91%
18,CN(C)c1cccc(C(=O)NCc2ccc(Cl)cc2)c1,-8.25%
19,CCc1ccc(NC(=S)N2CCC(NC(=O)c3ccccc3OC)CC2)cc1,-18.5%
20,O=C(CCCn1c(=O)oc2ccccc21)N1CCc2ccccc2C1,-30.6%
21,CC1(C)CC(=O)c2cc(OCC(=O)NCCN3CCCc4ccccc43)ccc2O1,-47.5%
22,O=C(NCCc1ccccc1)c1ccc(=O)[nH]c1,6.89%

row,Compound,"hERG current change (%, negative = inhibition) at 10uM"
1,O=C(NCCCNc1ccc([N+](=O)[O-])cc1Cl)c1ccccc1F,-4.03%
2,COc1ccc(Cn2c(=O)[nH]c3cc(C(=O)NCCCN4CCCCCC4)ccc3c2=O)cc1,-8.74%
3,Nc1ncnc2c1nc(Sc1ccc(Cl)cc1)n2[C@@H]1O[C@@H]2COP(=O)([O-])O[C@H]2[C@H]1O.[Na+],1.79%
4,COc1cccc(C(=O)Nc2cc(NC(=O)c3cccs3)ccc2C)c1,0.446%
5,CCC(C)(C)n1nnnc1CN1CCC(n2c(C)nc3cc(C(F)(F)F)ccc32)CC1,-5.5%
6,CC1(C)CC(=O)C(C=NCCN2CCN(C(=O)c3ccc(F)cc3)CC2)=C(O)C1,-21.1%
7,O=C(Nc1ccc(C(=O)N2CCN(c3ccc(Cl)cc3)CC2)cc1)C1=CSCCO1,-18.7%
8,COc1cc2ccccc2cc1C(=O)N1CC(C)CC(C)C1 (stereo not drawn),-15.4%
9,O=C(NC12CC3CC(CC(C3)C1)C2)c1cc(F)c(F)c(F)c1F,21.1%
10,Cc1ccc(S(=O)(=O)N2CCCC2)cc1C(=O)NCCOc1ccccc1,-5.81%
11,Cc1ccc(-c2noc(COc3ccccc3C)n2)cc1,16.1%
12,COC(=O)C(Cc1c[nH]c2ccccc12)NC(=O)c1cccs1 (stereo not drawn),0.0385%
13,CC(Oc1ccccc1)C(=O)Nc1nnc(S(=O)(=O)N2CCCCC2)s1 (stereo not drawn),5.81%
14,O=C(CSc1ccccn1)Nc1ccc(F)c([N+](=O)[O-])c1,-5.31%
15,CN(C(=O)COc1ccc(Cl)cc1Cl)c1nnc(C23CC4CC(CC(C4)C2)C3)s1,18.8%
16,Cc1[nH]c2ccccc2c1CCNS(=O)(=O)c1ccc(S(N)(=O)=O)cc1,7.53%
17,Cc1cccc(C(=O)OCC(=O)N2CCCC2=O)c1O,-16.1%
18,COc1ccc(CN2CCN(CCc3ccccc3)C(CCO)C2)c(Cl)c1OC (stereo not drawn),-60.1%
19,CCOC(=O)c1c(-c2ccccc2)nc2ccccn12,0.959%
20,COc1ccc(CCNC(=S)NC(=O)c2ccccc2)cc1C,19.8%
21,N#CCCCSC1=C(C#N)C(c2ccccc2Cl)CC(=O)N1 (stereo not drawn),-16.6%
22,CCN(CC)C(=O)c1[nH]cnc1C(=O)N[C@@H](CCCCNC(=O)OC(C)(C)C)C(=O)OC(C)(C)C,11.1%

row,Compound,"hERG current change (%, negative = inhibition) at 10uM"
1,CCc1ccc(N(C(=O)c2csnn2)C(C(=O)NC2CCCCC2)c2cccnc2)cc1 (stereo not drawn),-4.34%
2,CCOc1cccc2c1OC1(C)CC2NC(=O)N1c1cccc(Cl)c1 (stereo not drawn),1.64%
3,O=C(COC(=O)c1nc(Cl)ccc1Cl)Nc1ccc(Cl)cc1,-7.78%
4,O=C1COc2ccc(S(=O)(=O)N3CCN(c4ccccc4F)CC3)cc2N1,10.2%
5,COC(=O)c1cccc(NC(=S)Nc2cccc(Cl)c2C)c1,13.9%
6,COc1ccc(N2CCN(S(=O)(=O)c3ccc(Br)s3)CC2)cc1,-4.01%
7,Cc1oc(-c2cccc(Cl)c2)nc1CS(=O)(=O)CC(=O)NC1CCCC1,6.45%
8,O=C(c1ccco1)N1CCN(Cc2nc3cc(Cl)ccc3c(=O)[nH]2)CC1,-61.8%
9,COc1cc(C(=O)Nc2cccc(S(=O)(=O)N3CCCC3)c2)c([N+](=O)[O-])cc1OC,-5.39%
10,COc1cccc(N2CCN(C(=O)c3cc4ccc(OC)cc4[nH]3)CC2)c1,6.27%
11,C[C@@]12CC(=O)NC1N(C(=O)c1cccc(C(F)(F)F)c1)C(c1ccccc1O)C2 (stereo partly drawn),12.1%
12,CN1C[C@@H]2C[C@@H](c3cccn3-c3ccccn3)N3CCC[C@@]23C1=O,-43.6%
13,Cc1ccccc1CN1CCNC(=O)C1CC(=O)NCCC1=CCCCC1 (stereo not drawn),2.78%
14,O=C(NCc1cccc(C(F)(F)F)c1)C1CCCN(c2ncccn2)C1 (stereo not drawn),-37.1%
15,CC(C(=O)Nc1ccc(N(C)C)cc1)N1C(=O)c2ccccc2S1(=O)=O (stereo not drawn),15.3%
16,CCOC(=O)Cc1csc(NC(=O)CSc2nnc(-n3nc(C)cc3C)c3ccccc23)n1,-49.7%
17,COc1ccc(NC(=O)COC(=O)c2ccc3c(c2)OCCO3)cc1OC,15.9%
18,COc1ccc(/C=N/NC(=O)c2cccnc2)cc1CSc1nc2ccccc2s1,-4.2%
19,CC(C)Cn1cnc2c(c1=N)C(c1ccccc1)C1=C(CC(C)(C)CC1=O)O2 (stereo not drawn),-38.8%
20,CCOC(=O)c1sc(/N=C/c2c(O)n(-c3ccccc3)c(=O)[nH]c2=O)c(C#N)c1C,15.7%
21,CCOC(=O)N1CCC(N2Cc3cccc(C(=O)Nc4ccc(N(CC)CC)cc4C)c3C2=O)CC1,-7.16%

# Reference: publication PMC4336329 (PLoS ONE, 2015)
